# Measured values reported in PubChem BioAssay AID485360 (National Center for Advancing Translational Sciences (NCATS), 2010).
# In all, about 230,000 compounds went through this assay and about 1,500 (0.65%) were called active. Inconclusive results, whose numbers are uncertain, are shown with a selection of clear calls. Calls come from the whole dose curve; as a rule, active = well fitted inhibition curve with a large enough effect; inconclusive = small, poorly fitted or top-dose-only effect; inactive = no such curve, though single readings can be large or run the other way. A potency beside an inconclusive call is a rough fit, not a confirmed value.
# Target: Lethal(3)malignant brain tumor-like protein 1 (Homo sapiens) (UniProt Q9Y468)
# Experiment: qHTS Assay for the Inhibitors of L3MBTL1; note: nearly all actives have a fitted effect of over 60% in size
# Conditions: AlphaScreen L3MBTL1–H3K9me1 peptide binding; activity, negative = inhibition: at 57.1 µM (top of the series)
# Summary of the method: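 AlphaScreen assay: L3MBTL1 (50 nM final) was preincubated 30 min at room temperature with biotinylated H3(1-15)K9me1 peptide (75 nM final), then 30 min with library compounds; streptavidin donor and nickel chelate acceptor beads (10 ug/mL final) added, 30 min dark.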
# % is set by controls: 0 for no effect and ±100 for the full control effect; potency is the fitted concentration of half-maximal effect; tags give direction and shape of the fitted curve.
# UniProt Q9Y468, sequence (Q9Y468 whole entry, looked up): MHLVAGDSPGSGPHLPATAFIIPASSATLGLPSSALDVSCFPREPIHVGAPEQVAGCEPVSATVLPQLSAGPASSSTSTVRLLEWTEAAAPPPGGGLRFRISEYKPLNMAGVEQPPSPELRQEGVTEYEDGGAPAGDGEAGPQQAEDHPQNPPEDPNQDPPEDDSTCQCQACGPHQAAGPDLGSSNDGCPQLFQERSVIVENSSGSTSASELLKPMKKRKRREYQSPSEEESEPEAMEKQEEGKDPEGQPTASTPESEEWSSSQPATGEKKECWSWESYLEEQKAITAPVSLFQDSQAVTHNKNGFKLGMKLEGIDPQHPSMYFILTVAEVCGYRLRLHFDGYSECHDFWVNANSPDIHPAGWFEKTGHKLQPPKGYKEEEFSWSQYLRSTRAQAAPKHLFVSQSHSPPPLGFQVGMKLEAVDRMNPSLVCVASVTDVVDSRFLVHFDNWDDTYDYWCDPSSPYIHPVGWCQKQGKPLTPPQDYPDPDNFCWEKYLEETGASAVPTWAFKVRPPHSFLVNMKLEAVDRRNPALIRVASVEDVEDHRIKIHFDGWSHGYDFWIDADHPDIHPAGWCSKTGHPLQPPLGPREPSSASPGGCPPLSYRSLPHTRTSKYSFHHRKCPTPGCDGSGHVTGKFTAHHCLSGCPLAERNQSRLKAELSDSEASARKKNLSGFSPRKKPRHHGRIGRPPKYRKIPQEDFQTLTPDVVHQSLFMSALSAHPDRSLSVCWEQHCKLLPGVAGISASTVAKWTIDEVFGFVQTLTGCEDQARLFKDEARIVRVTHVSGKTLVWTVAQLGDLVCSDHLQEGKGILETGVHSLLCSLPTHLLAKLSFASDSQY
Structure (SMILES),Potency,"activity, negative = inhibition"
CCOC(=O)NC1(C(F)(F)F)C(=O)NC(C)=C1C#N (configuration not stated),"inconclusive: 3.98 µM [inhibitor, single point]",–
Cc1c(Cl)cccc1-c1ccc(CNCc2ccccn2)o1,"inconclusive: 14.1 µM [inhibitor, partial curve]",–
O=C(CSCc1ccccc1Br)N/N=C/c1ccc2c(c1)OCO2,"inconclusive: 6.31 µM [inhibitor, single point]",–
O=C(CSc1nnc(-c2ccco2)o1)c1ccccc1,"inconclusive: 25.1 µM [inhibitor, single point]",–
COC(=O)c1ccccc1NC(=O)CSc1nc(N)cc(N)n1,–,inactive: -0.304%
O=C(OCC(=O)N1CCCCCC1)c1ccc([N+](=O)[O-])cc1Cl,–,inactive: -7.09%
CC(C)(C)c1ccc(C(=O)N/C(=C\c2ccco2)C(=O)O)cc1,"inconclusive: 39.8 µM [inhibitor, single point]",–
CCN(c1ccc(NC(=O)CCc2nc3sc4c(c3c(=O)[nH]2)CCCC4)cc1)C(C)C,"inconclusive: 31.6 µM [inhibitor, single point]",–
COc1ccccc1-n1cnc2cc(NCc3ccccc3O)ccc21,"inconclusive: 25.1 µM [inhibitor, single point]",–
O=C(Nc1ccncc1)c1cccc(S(=O)(=O)N2CCc3ccccc32)c1,"inconclusive: 6.31 µM [inhibitor, single point]",–
C=CCn1c(CSCc2ccccc2)nnc1SCC(=O)N1CCN(c2ccccc2)CC1,"inconclusive: 25.1 µM [inhibitor, partial curve, poor fit]",–
Cc1cc(O)c(C(C)C)cc1C1(c2cc(C(C)C)c(O)cc2C)OC(=O)c2ccccc21,–,inactive: 4.45%
O=C1C=C(Nc2ccccc2)C(=O)c2ccccc21,"inconclusive: 2.51 µM [inhibitor, partial curve]",–
CCC1=NN2C(=N)/C(=C\c3ccc(OCc4cc(=O)n5nc(CC)sc5n4)c(OC)c3)C(=O)N=C2S1,"inconclusive: 17.8 µM [inhibitor, partial curve]",–
COc1cc(C2Nc3cccc4cccc(c34)N2)cc(OC)c1OC(C)=O,"inconclusive: 12.6 µM [inhibitor, partial curve]",–
O=C(Nc1ccccn1)c1cccc(S(=O)(=O)N2CCCCC2)c1,"inconclusive: 5.62 µM [inhibitor, full curve, poor fit]",–
Cc1ccc(Cl)cc1N1CCN(C(=O)Cc2c(C(=O)O)[nH]c3ccc(Cl)cc23)CC1,"inconclusive: 39.8 µM [inhibitor, single point]",–
COc1ccc(C(=O)/C=C/c2ccc(N3CCCCC3)c([N+](=O)[O-])c2)c(OC)c1,"inconclusive: 28.2 µM [inhibitor, single point]",–
O=C1C(C2=C(O)c3ccccc3C2=O)=Nc2ccccc21,"inconclusive: 25.1 µM [inhibitor, single point]",–
C#CCOCCOCCOCCNc1nc(N2CCN(C(=O)[C@H]([C@@H](C)CC)n3cc([C@@H](N)CO)nn3)CC2)nc(N2CCN(C(=O)[C@H](Cc3ccc(O)cc3)n3cc([C@@H](N)C(C)CC)nn3)CC2)n1 (some centres not stated),"inconclusive: 14.1 µM [inhibitor, partial curve]",–
Clc1nc(Nc2ccc(N3CCOCC3)cc2)c2ccccc2n1,–,inactive: -16%

Structure (SMILES),Potency,"activity, negative = inhibition"
CC(=O)Oc1cccc(-c2nc3ccccc3c(=O)o2)c1,–,inactive: 8.12%
CN(C)c1ccc([C@@H]2[C@@H]([N+](=O)[O-])[C@H]3C=Cc4ccccc4N3[C@H]2C(=O)c2ccc(Cl)cc2)cc1,"inconclusive: 25.1 µM [inhibitor, partial curve]",–
O=C1c2cc(O)c(O)cc2S(=O)(=O)C1c1ccccc1 (configuration not stated),"inconclusive: 1.26 µM [inhibitor, full curve, poor fit]",–
Cc1ccsc1/C=N/Nc1nc2ccccc2s1,"inconclusive: 35.5 µM [inhibitor, single point]",–
COc1ccc(C(=O)Nc2ccc(N3CCN(C)CC3)cc2)cc1OC,–,inactive: -1.15%
COc1ccccc1N1CCN(C/C=C/c2ccc(N(C)C)cc2)CC1,"inconclusive: 31.6 µM [inhibitor, partial curve]",–
Cc1cc(C=C2C(=O)CCCC2=O)c(C)n1-c1ccccc1,"inconclusive: 31.6 µM [inhibitor, single point]",–
Oc1ccccc1C=NC1=NN(c2cccc(C(F)(F)F)c2)CC1,"inconclusive: 3.55 µM [inhibitor, single point]",–
CCc1ccc(NC(=O)c2ccc3c(c2)C(=O)N(Cc2ccco2)C3=O)cc1,"inconclusive: 25.1 µM [inhibitor, single point]",–
O=C(Nc1nc(-c2ccccn2)cs1)c1cc(S(=O)(=O)N2CCOCC2)ccc1F,"inconclusive: 35.5 µM [inhibitor, single point]",–
Cc1ccc(C2C3=C(Nc4[nH]n(-c5ccccc5)c(=O)c42)c2ccccc2C3=O)cc1 (configuration not stated),"inconclusive: 39.8 µM [inhibitor, single point]",–
Cn1c(N)c(C(=O)CN2CCc3ccccc3C2)c(=O)n(C)c1=O,–,inactive: -1.04%
COc1ccc(CCC(=O)Nc2sccc2C#N)cc1,–,inactive: 0.696%
CCOc1ccc(/C=N/NC(=O)C2(O)c3ccccc3-c3ccccc32)cc1,–,inactive: 5.52%
O=C(CSc1nnc(Nc2ccccc2F)s1)Nc1cccc(S(=O)(=O)N2CCCCC2)c1,–,inactive: -13.7%
Cc1cc(/C=N/NC(N)=S)c(C)n1-c1ccc(Cl)c(Cl)c1,"inconclusive: 6.31 µM [inhibitor, single point]",–
CC(OC(=O)CNC(=O)c1ccco1)C(=O)N(C)c1ccccc1 (configuration not stated),–,inactive: 12.4%
O=C(Cn1cnc2scc(-c3ccccc3)c2c1=O)NCc1ccco1,"inconclusive: 17.8 µM [inhibitor, partial curve]",–
Cc1ccc(N=N/C(=C\O)C(=O)c2ccc(Cl)cc2)cc1,"inconclusive: 11.2 µM [inhibitor, partial curve]",–
O=C(Nc1cccc(S(=O)(=O)N2CCOCC2)c1)c1cccc(S(=O)(=O)N2CCCCC2)c1,–,inactive: -0.284%
CCN(CC)c1ccc(NC(=O)CSc2ccsc2[N+](=O)[O-])c(C)c1,"inconclusive: 35.5 µM [inhibitor, single point]",–
